Data as given in PubChem BioAssay AID2147 (National Center for Advancing Translational Sciences (NCATS), 2009).
Out of some 230,000 compounds screened, about 3,600 (1.6%) were called active. Inconclusive results, whose numbers are uncertain, are shown with a selection of clear calls. Calls follow the shape of the dose curve; as a rule, active = well fitted inhibition curve with a large enough effect (not every such curve was filed as active); inconclusive = small, poorly fitted or top-dose-only effect, or another doubt; inactive = no such curve, though single readings can be large or run the other way. Potencies of inconclusive entries are doubtful fits and often do not repeat.

Each molecule was assayed against Lysine-specific demethylase 4E (Homo sapiens) (UniProt B2RXH2) (assay: qHTS Assay for Inhibitors of Human Jumonji Domain Containing 2E (JMJD2E)). Conditions: JMJD2E catalytic domain, FDH-coupled NADH fluorescence (FDH is formaldehyde dehydrogenase); series mostly up to 57.1 µM.
Also: nearly all actives have a fitted effect of over 50% in size.
Potency is read from the fitted curve at half-maximal effect; tags tell the direction and shape of the fitted curve.

UniProt B2RXH2, sequence (B2RXH2 whole entry, looked up, the tested form may be a part): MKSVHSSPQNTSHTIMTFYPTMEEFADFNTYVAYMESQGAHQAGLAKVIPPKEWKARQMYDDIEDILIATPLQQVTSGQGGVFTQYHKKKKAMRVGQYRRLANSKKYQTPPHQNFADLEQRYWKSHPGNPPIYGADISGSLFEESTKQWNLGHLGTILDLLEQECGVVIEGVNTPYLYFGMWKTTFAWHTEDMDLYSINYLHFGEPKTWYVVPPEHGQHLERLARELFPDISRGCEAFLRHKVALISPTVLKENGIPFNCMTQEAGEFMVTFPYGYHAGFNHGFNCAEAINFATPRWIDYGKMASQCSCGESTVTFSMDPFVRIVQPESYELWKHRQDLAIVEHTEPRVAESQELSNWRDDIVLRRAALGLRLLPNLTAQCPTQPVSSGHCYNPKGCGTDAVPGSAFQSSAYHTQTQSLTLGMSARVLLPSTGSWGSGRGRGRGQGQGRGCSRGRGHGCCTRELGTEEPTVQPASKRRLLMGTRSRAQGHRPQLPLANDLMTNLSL

Compound | Potency
CC(C)c1ccc(NS(=O)(=O)c2ccc3[nH]cc(C(=O)N4CCC(C(N)=O)CC4)c(=O)c3c2)cc1 | inactive
CC(=O)C1=C(O)C(=O)N(CCO)C1c1ccccc1 (stereo not drawn) | inconclusive: 39.8 µM [inhibitor, single point]
O=C(CN1C(=O)C2C3C=CC(C3)C2C1=O)Nc1ccc2nccnc2c1 (stereo not drawn) | inconclusive: 20 µM [inhibitor, partial curve]
CC(C)OC(=O)CSc1nc2c(c(C3CC=CCC3)c1C#N)CCC2 (stereo not drawn) | inconclusive: 35.5 µM [inhibitor, single point]
NC(N)=N/N=C/c1ccc2cccc(OCc3ccccc3)c2n1 | inconclusive: 31.6 µM [inhibitor, partial curve]
O=C1Nc2ccccc2/C1=N\c1sc2c(c1C(=O)Nc1ccccc1)CCCC2 | inconclusive: 39.8 µM [inhibitor, single point]
C=CCOC(=O)C1=C[C@H](C2CC2)[C@@H](CCCO)[C@H](OCC)O1 | inactive
C=CCOc1ccc(Br)cc1/C=N/O | inactive
Cc1ccc([N+](=O)[O-])cc1NC(=O)Cc1cccs1 | inconclusive: 25.1 µM [inhibitor, single point]
COc1cc(C(=O)N/C(=C\c2cn(C)c3ccccc23)C(=O)NCCCO)cc(OC)c1OC | inconclusive: 39.8 µM [inhibitor, single point]
O=C(NC1CC1)C1=C[C@H](c2c[nH]c3ccccc23)C[C@H](OCCCCO)O1 | inconclusive: 17.8 µM [inhibitor, partial curve, poor fit]
Cc1csc(NC(=O)CCc2c(C)nc3cc(-c4cccc(F)c4)nn3c2C)n1 | inconclusive: 31.6 µM [inhibitor, partial curve]
CCOc1cc(/C=C2\C(=O)ON=C2C)ccc1OCc1ccccc1 | inactive
CCC(CC)C(=O)Nc1cc(OC)c(OC)cc1C(=O)O | inconclusive: 39.8 µM [inhibitor, single point]
C/C(=N\Nc1nc2ccccc2[nH]1)c1ccc(N2CCOCC2)cc1 | inactive
CC(C)[C@@H](CC(=O)N[C@@H]1CCCC[C@H]1C(=O)N[C@H](CC(=O)N[C@@H](CCC(=O)O)CC(=O)O)Cc1ccccc1)NC(=O)C[C@H](CO)NC(=O)[C@@H]1CCCC[C@H]1N | inactive
O=C(Cn1nnc(-c2ccccc2NC(=O)c2ccccc2F)n1)NC1CCCC1 | inconclusive: 35.5 µM [inhibitor, single point]
O=C1NN(c2ccccc2)C(=O)/C1=C/c1coc2ccccc2c1=O | inactive
CCC(=O)Nc1cccc(SC)c1 | inactive
O=C1NC2(Nc3ccccc31)C(=O)Nc1ccccc12 (stereo not drawn) | inconclusive: 28.2 µM [inhibitor, partial curve]
COCCNC(=O)c1c(N)sc2c1CCCC2 | inconclusive: 22.4 µM [inhibitor, partial curve]
CCC(=O)Nc1ncc2c(n1)CC(c1ccco1)CC2=O (stereo not drawn) | inactive
CCOC(=O)CSc1nc(C)c2cc(OC)ccc2n1 | inconclusive: 25.1 µM [inhibitor, partial curve]
O=C(/C=C/c1ccco1)NC(=S)Nc1cc(-c2nc3ccccc3s2)ccc1Cl | inactive

Compound | Potency
COc1cccc(/C=N/NC(=O)c2c(-c3ccccc3)noc2C)c1O | active: 31.6 µM
CCCC(=O)Nc1ccc(NC(=O)c2ccccn2)cn1 | inactive
CCOc1cc(S(=O)(=O)N2CCN(c3ccc(F)cc3)CC2)c(OCC)cc1-n1cnnn1 | inconclusive: 39.8 µM [inhibitor, single point]
CC(=O)c1cccc(N=c2scc(-c3ccc(S(=O)(=O)N4CCOCC4)cc3)n2CCO)c1 | inactive
CCOC(=O)Cc1csc(NC(=O)c2sc3nc4c(C)cc(C)cc4cc3c2N)n1 | inconclusive: 31.6 µM [inhibitor, single point]
COc1ccc2cc(CCNC(=O)CC(C)(C)C)c(=O)[nH]c2c1 | inconclusive: 35.5 µM [inhibitor, single point]
CCC(C)(C)n1nnnc1C(c1cc(OC)ccc1OC)N1CCN(Cc2ccccc2)CC1 (stereo not drawn) | inconclusive: 39.8 µM [inhibitor, single point]
COCCn1c(-c2ccco2)nc2nc3ccccc3nc21 | inconclusive: 20 µM [inhibitor, partial curve]
CC(C)(O)CCCC(C)(O)c1ccc(C(=O)O)cc1O (stereo not drawn) | inactive
N#CC(c1ccc(Cl)nn1)c1ccccc1Cl (stereo not drawn) | inactive
Cn1cnnc1SCC(=O)Nc1sc2c(c1C(N)=O)CCC2 | inconclusive: 39.8 µM [inhibitor, single point]
CC(C)OC(=O)[C@@H]1CC[C@H](C)[C@@H](CCCC=O)O1 | inactive
Cc1ccc(SCCNS(=O)(=O)c2ccc3c(c2)OCCO3)cc1 | inactive
COC(=O)C1(CO)NC(c2cccs2)C2C(=O)N(c3ccccc3)C(=O)C21 (stereo not drawn) | inactive
Nc1ncc2c(n1)-c1ccccc1CC2 | inconclusive: 22.4 µM [inhibitor, partial curve]
CC1CCCC(C)N1CCCNC(=O)c1cc2c(=O)n(C)c3ccccc3c2n1C (stereo not drawn) | inconclusive: 28.2 µM [inhibitor, partial curve]
CC(C)C(=O)Nc1ccccc1N1CCN(S(C)(=O)=O)CC1 | inactive
CC[C@H]1NC(=O)c2cc(S(N)(=O)=O)c(Cl)cc2N1 | inactive
CN(C)C(=O)c1coc2nc3ccccc3nc12 | inconclusive: 28.2 µM [inhibitor, partial curve]
O=C(NC(=S)Nc1ccc(NC(=O)c2ccco2)cc1)c1ccccc1 | inconclusive: 35.5 µM [inhibitor, single point]
CCCC(=O)n1nc(-c2ccc(Cl)cc2)nc1SC | inconclusive: 39.8 µM [inhibitor, single point]
CCn1c(C)[n+](CC)c2ccc(S(=O)(=O)N(C)C)cc21 | inconclusive: 11.2 µM [inhibitor, partial curve]
COc1ccc(-c2nc(=S)c3c(n2Cc2cccnc2)CC(C)(C)OC3)cc1 | inactive
Cc1cc2n(n1)C(c1c[nH]c3ccccc13)Nc1ccccc1-2 (stereo not drawn) | inconclusive: 6.31 µM [inhibitor, full curve]
